In the supplement of paper PMC9151546:
Single values are uncertain, as repeats are few or missing.

Columns and labels:
[1] = tested on: CHO-K1; test: micronucleus frequency (% of nucleated events); higher = more micronuclei (genotoxic)
[2] = tested on: CHO-K1; test: hypodiploid nuclei frequency (% of nucleated events); higher = more hypodiploid events (aneugenic)
[3] = tested on: CHO-K1; test: relative survival (nuclei to bead ratio vs DMSO control) (% of vehicle control); higher = more surviving cells
Experimental: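 Flow-cytometric in vitro micronucleus assay (Litron MicroFlow) in CHO-K1 cells in 96-well plates, 19 concentrations (4.5-200 µM, n=1 per concentration). Without S9, cells were exposed for 24 h and sampled at 48 h. With Aroclor 1254-induced rat liver S9, cells were exposed for 3-4 h and sampled at 27-28 h. Read-outs are %MN and %hypodiploid nuclei relative to nucleated events, and relative survival as the nuclei-to-bead ratio versus the 1% DMSO vehicle control (x100).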
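For hypodiploid nuclei frequency (% of nucleated events) in this document: hypodiploid nuclei gated on a flow cytometer with 488 nm excitation after SYTOX Green staining, cultures at 37 °C, positive controls vinblastine without S9 and cyclophosphamide with S9.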
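For micronucleus frequency (% of nucleated events) in this document: cells lysed with nuclei stained by SYTOX Green, then micronucleus-gated events counted against nucleated events by flow cytometry with 488 nm excitation.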
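For relative survival (nuclei to bead ratio vs DMSO control) in this document: Lysed-cell nuclei stained with SYTOX Green and counted against counting beads by flow cytometry at 488 nm excitation, with vinblastine (no S9) and cyclophosphamide (plus S9) as positive controls.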

O=P(OC(CCl)CCl)(OC(CCl)CCl)OC(CCl)CCl [Tris(1,3-dichloro-2-propyl)phosphate]
Conditions | hypodiploid nuclei frequency, [2] [%] | micronucleus frequency, [1] [%] | relative survival, [3]
concentration: 4.5 (µM), S9 metabolic activation: with S9, exposure time: 3-4 hours | 0.32 | 1.54 | 101
concentration: 4.5 (µM), S9 metabolic activation: without S9, exposure time: 24 hours | 0.78 | 1.3 | 110
concentration: 5.63 (µM), S9 metabolic activation: with S9, exposure time: 3-4 hours | 0.22 | 2.18 | 83.5
concentration: 5.63 (µM), S9 metabolic activation: without S9, exposure time: 24 hours | 0.4 | 1.54 | 105
concentration: 7.04 (µM), S9 metabolic activation: with S9, exposure time: 3-4 hours | 0.24 | 1.56 | 85
concentration: 7.04 (µM), S9 metabolic activation: without S9, exposure time: 24 hours | 0.6 | 1.92 | 74.2
concentration: 8.8 (µM), S9 metabolic activation: with S9, exposure time: 3-4 hours | 0.3 | 0.96 | 77.2
concentration: 8.8 (µM), S9 metabolic activation: without S9, exposure time: 24 hours | 0.62 | 0.9 | 74.4
concentration: 11 (µM), S9 metabolic activation: with S9, exposure time: 3-4 hours | 0.2 | 1.56 | 81.8
concentration: 11 (µM), S9 metabolic activation: without S9, exposure time: 24 hours | 0.48 | 1.02 | 61
concentration: 13.7 (µM), S9 metabolic activation: with S9, exposure time: 3-4 hours | 0.3 | 1.46 | 86.7
concentration: 13.7 (µM), S9 metabolic activation: without S9, exposure time: 24 hours | 0.44 | 1.32 | 74.9
concentration: 17.2 (µM), S9 metabolic activation: with S9, exposure time: 3-4 hours | 0.2 | 1.58 | 86.4
concentration: 17.2 (µM), S9 metabolic activation: without S9, exposure time: 24 hours | 0.58 | 1.26 | 80
concentration: 21.5 (µM), S9 metabolic activation: with S9, exposure time: 3-4 hours | 0.22 | 1.62 | 91.4
concentration: 21.5 (µM), S9 metabolic activation: without S9, exposure time: 24 hours | 0.44 | 1.22 | 80.3
concentration: 26.8 (µM), S9 metabolic activation: with S9, exposure time: 3-4 hours | 0.16 | 1.36 | 99.6
concentration: 26.8 (µM), S9 metabolic activation: without S9, exposure time: 24 hours | 0.86 | 0.86 | 79.2
concentration: 33.6 (µM), S9 metabolic activation: with S9, exposure time: 3-4 hours | 0.36 | 1.58 | 99.6
concentration: 33.6 (µM), S9 metabolic activation: without S9, exposure time: 24 hours | 0.86 | 1.1 | 85.9
concentration: 41.9 (µM), S9 metabolic activation: with S9, exposure time: 3-4 hours | 0.12 | 1.16 | 90.1
concentration: 41.9 (µM), S9 metabolic activation: without S9, exposure time: 24 hours | 0.8 | 0.78 | 98.6
concentration: 52.4 (µM), S9 metabolic activation: with S9, exposure time: 3-4 hours | 0.28 | 0.9 | 74.7
concentration: 52.4 (µM), S9 metabolic activation: without S9, exposure time: 24 hours | 0.68 | 1.06 | 85
concentration: 65.5 (µM), S9 metabolic activation: with S9, exposure time: 3-4 hours | 0.2 | 1.14 | 71
concentration: 65.5 (µM), S9 metabolic activation: without S9, exposure time: 24 hours | 0.8 | 0.9 | 63.1
concentration: 81.9 (µM), S9 metabolic activation: with S9, exposure time: 3-4 hours | 0.14 | 1.08 | 76.8
concentration: 81.9 (µM), S9 metabolic activation: without S9, exposure time: 24 hours | 0.9 | 1.24 | 77.6
concentration: 102 (µM), S9 metabolic activation: with S9, exposure time: 3-4 hours | 0.22 | 1.28 | 67.8
concentration: 102 (µM), S9 metabolic activation: without S9, exposure time: 24 hours | 0.8 | 1.12 | 54.1
concentration: 128 (µM), S9 metabolic activation: with S9, exposure time: 3-4 hours | 0.2 | 1.7 | 76.1
concentration: 128 (µM), S9 metabolic activation: without S9, exposure time: 24 hours | 0.48 | 0.8 | 50.2
concentration: 160 (µM), S9 metabolic activation: with S9, exposure time: 3-4 hours | 0.14 | 1.66 | 73.8
concentration: 160 (µM), S9 metabolic activation: without S9, exposure time: 24 hours | 0.52 | 0.94 | 53.6
concentration: 200 (µM), S9 metabolic activation: with S9, exposure time: 3-4 hours | 0.32 | 1.64 | 61
concentration: 200 (µM), S9 metabolic activation: without S9, exposure time: 24 hours | 0.44 | 0.78 | 42.2

CN(C)c1ccc(C(=C2C=CC(=[N+](C)C)C=C2)c2ccc(N(C)C)cc2)cc1 [Gentian Violet]
Conditions | hypodiploid nuclei frequency, [2] [%] | micronucleus frequency, [1] [%] | relative survival, [3]
concentration: 0.108 (µM), S9 metabolic activation: with S9, exposure time: 3-4 hours | 0.14 | 1.26 | 140
concentration: 0.108 (µM), S9 metabolic activation: without S9, exposure time: 24 hours | 1.02 | 2.36 | 55.3
concentration: 0.135 (µM), S9 metabolic activation: with S9, exposure time: 3-4 hours | 0.26 | 1.58 | 129
concentration: 0.135 (µM), S9 metabolic activation: without S9, exposure time: 24 hours | 1.04 | 2.5 | 59
concentration: 0.169 (µM), S9 metabolic activation: with S9, exposure time: 3-4 hours | 0.32 | 1.5 | 132
concentration: 0.169 (µM), S9 metabolic activation: without S9, exposure time: 24 hours | 1.54 | 2.86 | 54.8
concentration: 0.211 (µM), S9 metabolic activation: with S9, exposure time: 3-4 hours | 0.22 | 1.76 | 124
concentration: 0.211 (µM), S9 metabolic activation: without S9, exposure time: 24 hours | 1.74 | 2.98 | 54.6
concentration: 0.264 (µM), S9 metabolic activation: with S9, exposure time: 3-4 hours | 0.28 | 1.68 | 125
concentration: 0.264 (µM), S9 metabolic activation: without S9, exposure time: 24 hours | 3.04 | 3.46 | 44.7
concentration: 0.33 (µM), S9 metabolic activation: with S9, exposure time: 3-4 hours | 0.5 | 1.98 | 92.7
concentration: 0.33 (µM), S9 metabolic activation: without S9, exposure time: 24 hours | 3.12 | 3.64 | 40.7
concentration: 0.412 (µM), S9 metabolic activation: with S9, exposure time: 3-4 hours | 0.4 | 1.66 | 69.4
concentration: 0.412 (µM), S9 metabolic activation: without S9, exposure time: 24 hours | – | – | 34
concentration: 0.515 (µM), S9 metabolic activation: with S9, exposure time: 3-4 hours | 0.44 | 2.28 | 70.6
concentration: 0.515 (µM), S9 metabolic activation: without S9, exposure time: 24 hours | – | – | 34.7
concentration: 0.644 (µM), S9 metabolic activation: with S9, exposure time: 3-4 hours | 0.56 | 1.58 | 81.4
concentration: 0.644 (µM), S9 metabolic activation: without S9, exposure time: 24 hours | 1.08 | 1.4 | 40.2
concentration: 0.805 (µM), S9 metabolic activation: with S9, exposure time: 3-4 hours | 0.82 | 2 | 66.3
concentration: 0.805 (µM), S9 metabolic activation: without S9, exposure time: 24 hours | – | – | 22.6
concentration: 1.01 (µM), S9 metabolic activation: with S9, exposure time: 3-4 hours | 0.6 | 2.16 | 74.9
concentration: 1.01 (µM), S9 metabolic activation: without S9, exposure time: 24 hours | – | – | 9.27
concentration: 1.26 (µM), S9 metabolic activation: with S9, exposure time: 3-4 hours | 1.16 | 3.22 | 62.5
concentration: 1.26 (µM), S9 metabolic activation: without S9, exposure time: 24 hours | – | – | 8.52
concentration: 1.57 (µM), S9 metabolic activation: with S9, exposure time: 3-4 hours | 1.23 | 6.34 | 52.4
concentration: 1.57 (µM), S9 metabolic activation: without S9, exposure time: 24 hours | – | – | 5.16
concentration: 1.97 (µM), S9 metabolic activation: with S9, exposure time: 3-4 hours | – | – | 37.7
concentration: 1.97 (µM), S9 metabolic activation: without S9, exposure time: 24 hours | – | – | 0.01
concentration: 2.46 (µM), S9 metabolic activation: with S9, exposure time: 3-4 hours | – | – | 36.2
concentration: 3.07 (µM), S9 metabolic activation: with S9, exposure time: 3-4 hours | – | – | 15.7
concentration: 3.84 (µM), S9 metabolic activation: with S9, exposure time: 3-4 hours | – | – | 4.32
